In paper PMC12040169 (PLOS Biology, 2025):
This is one part of the list.

Each compound was assayed on T1, C. trachomatis L2/434/Bu expressing GFP (CTL2-GFP). Settings: total inclusion area; 28.5 h, 10 µM; inhibitor.
T1 construct: L2/434/Bu GFP intracellular growth in HeLa cells
Set-up: species or system HeLa; C. trachomatis total inclusion area by high-content imaging, normalised to DMSO
Outline: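 Host cell viability was gauged from Hoechst-stained nuclei counts, while chlamydial growth was taken from total inclusion area and inclusion number per well. Cells were fixed and imaged by high-content microscopy once bulk GFP and resorufin fluorescence had been measured.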

| Structure (SMILES) | % of control remaining |
| --- | --- |
| Brc1ccc(-c2ccnc3nc(-c4ccncc4)nn23)cc1 [CBK288623] | 99.0837 |
| CCn1c(CN2CCOCC2)nnc1SCC(=O)Nc1cccc(Br)c1 [CBK269740] | 80.6146 |
| Cc1cccc(N2CCN(C(=O)CCc3ccsc3)C(C)C2)n1 (centres unmarked) [CBK304069] | 48.5308 |
| O=C(NCC1COc2ccccc2O1)N1CCN(c2cc(C(F)(F)F)ccn2)CC1 (centres unmarked) [CBK156432] | 104.941 |
| COc1cc2c3c([nH]c2cc1F)C1(CCN(CCOc2ccccc2)C1)NCC3 (centres unmarked) [CBK115687T] | 64.5783 |
| Cc1ccc(CN2CCC(CN(C)C(=O)c3cc4sccc4[nH]3)CC2)o1 [CBK307522] | 84.2347 |
| Cc1nc(S(=O)(=O)CCn2cccn2)n(CC2CCCO2)c1C (centres unmarked) [CBK305141] | 63.9996 |
| CC(NC(=O)/C(=C\c1ccc(Cl)cc1)NC(=O)c1ccccc1Br)C(=O)O (centres unmarked) [CBK264582] | 106.46 |
| N#Cc1cccc(CN2CC[C@H](c3nnc(-c4ccco4)o3)C2)c1 [CBK289394] | 77.951 |
| CS(=O)(=O)N1CC2CCCC(O)(c3cccc(F)c3)C2C1 (centres unmarked) [CBK283107] | 107.967 |
| CCNc1nc(-c2cc(Cl)cc(Cl)c2)cn2ccnc12 [CBK066483] | 74.2284 |
| Cc1nc2c(c(=O)[nH]1)CN(Cc1sccc1C)CC2 [CBK283950] | 102.21 |
| CC(C)[C@H](CO)Nc1nc(-c2ccc(S(C)(=O)=O)cc2)cnc1N [CBK063718] | 116.026 |
| COc1ccc(C(=O)[C@H]2CCCN(C(=O)C3CC3)C2)cc1 [CBK284329] | 90.1099 |
| COc1ccc(Oc2nccc(-c3ccccc3)c2C#N)cc1 [CBK291158] | 107.573 |
| S=C1NCC(COc2ccc(Cl)cc2)O1 (centres unmarked) [CBK015647] | 89.2249 |
| O=C(CN1CCCCCC1)N/N=C/c1ccc(F)c(Br)c1 [CBK261596] | 93.3397 |
| CCN1CCN(Cc2ccc(OC)c(OCc3ccccc3)c2)CC1 [CBK261910] | 98.8996 |
| COc1cccc(-c2cnc(N(C)C)nc2C2CCCN2Cc2ccc3ncccc3c2)c1 (centres unmarked) [CBK286251] | 100.406 |
| Cc1cc(NC(=O)CCn2c(C(F)F)cc3cccnc32)nn1C [CBK285071] | 102.204 |
| Cc1cc(Br)ccc1NC(=O)CSc1nnc(-c2ccccc2O)n1-c1ccccc1 [CBK268086] | 100.78 |
| O=C([C@H]1CN2CCC1C[C@@H]2Cn1cc(COc2ccccc2)nn1)N1CCOCC1 (some centres unmarked) [CBK288734] | 95.5054 |
| COc1cccc(CN2CCN(Cc3cc(OC)cc(OC)c3)CC2)c1 [CBK033622] | 99.1164 |
| Cc1cc(COc2ccnc(N3CCCN(CCCO)CC3)n2)no1 [CBK083917] | 93.2482 |
| O=C(O)/C=C\C(=O)Nc1ccc(Oc2ccccc2)cc1 [CBK261216] | 79.7366 |
| Cc1cccc(C(=O)Nc2ccc3oc(-c4cccnc4)nc3c2)c1 [CBK073161] | 91.4884 |
| FC(F)(F)c1ccnc(SCCc2cnccn2)n1 [CBK105300] | 93.7149 |

| Structure (SMILES) | % of control remaining |
| --- | --- |
| CCn1nc(C)c(C(C)NC(=O)CC(C)n2nc(C)cc2C)c1C (centres unmarked) [CBK281533] | 114.418 |
| O=C(c1ccc(COc2ccc(I)cc2)cc1)N1CCCCCC1 [CBK058852] | 94.3822 |
| CCOC(=O)Cn1[nH]c(COC(C)(C)C)c(Cc2c(Cl)cccc2Cl)c1=O [CBK103551] | 92.0409 |
| Nc1cc2cccnc2c(-c2ccsc2)n1 [CBK081218] | 98.497 |
| CCc1nccnc1OC [CBK089673] | 62.6371 |
| C=CCOc1ccc(CNCCN2CCOCC2)cc1 [CBK278215C] | 102.167 |
| O=C1NCCNC(=O)C2(C/C=C/COc3ccccc31)CCN(Cc1ccccc1F)CC2 [CBK292024] | 103.179 |
| C=CCN1C(=O)CC2(C1=O)C(=O)N(Cc1csc(-c3ccccc3)n1)c1ccc(Cl)cc12 (centres unmarked) [CBK075445] | 107.791 |
| CCOC(=O)Cc1csc(NS(=O)(=O)/C=C/c2ccccc2)n1 [CBK000072] | 126.924 |
| Cc1cc(NC(=O)CCN2CCC(N3CCNC3=O)CC2)no1 [CBK304909] | 65.2631 |
| CSCCCNC(=O)N1CCN(CCN2CCOCC2)CC1 [CBK155669] | 76.101 |
| Nc1nc(=O)c2cnc3c(Cl)cccc3c2s1 [CBK291229] | 95.5883 |
| Cc1cc(CN(C)C(=O)c2cc3sccc3[nH]2)no1 [CBK304340] | 65.5067 |
| Cc1ccc(N2C(=O)c3ccccc3NC23C(=O)N(C)c2ccc(Br)cc23)cc1 (centres unmarked) [CBK103752] | 85.5653 |
| CS(=O)(=O)Cc1cccc(C(=O)Nc2ccc(Oc3ccccc3)cc2)c1 [CBK297111] | 86.911 |
| Cc1ccc(NC(=O)c2cccnc2)c(C(=O)O)c1 [CBK000177] | 72.6393 |
| COc1cccc(-n2c(=O)[nH]c3c(C(N)=O)nc(-c4ccccc4)nc32)c1 [CBK287740] | 59.2323 |
| COc1cc(S(=O)(=O)Nc2ccc(CC(=O)O)cc2)ccc1Cl [CBK287019] | 95.6305 |
| COCCN1C(=O)c2ccc(C(=O)Nc3ccc(O)c(C(=O)O)c3)cc2C1=O [CBK268344] | 105.767 |
| C[C@H](NC1=NC(=O)C2(CCN(Cc3ccccc3)CC2)O1)c1ccccc1 [CBK122798T] | 103.522 |
| CCCCN(C)c1c(C)nc2ccc(C(=O)N(C)CCCN(C)C)cn12 [CBK146006] | 95.4813 |
| Nc1ncc(-c2cccc(CO)c2)nc1NC1CCCCC1 [CBK063650] | 135.11 |
| O=C(O)c1cc(S(=O)(=O)Nc2cccc(-c3cnco3)c2)c(F)cc1Cl [CBK067126] | 104.751 |
| NC(=O)c1c(NC(=O)Cn2cnc([N+](=O)[O-])n2)sc2c1CCCC2 [CBK027935] | 81.4132 |
| O=C1c2ccccc2NC(c2ccccc2F)N1O (centres unmarked) [CBK288377] | 59.8354 |
| CC(C)N1CCC(CNC(=O)c2cc(C3CCCCC3)no2)CC1 [CBK283293] | 99.5856 |
